Laboratory results as given in PubChem BioAssay AID540267 (National Center for Advancing Translational Sciences (NCATS), 2011).
Screen size: about 340,000 compounds; about 530 (0.16%) were called active. The inconclusive results got no clear call from the source; some entries with a clear call stand among them for comparison. Cut-off read from the data, not from the text of the source: active = activity change below about -80%; inconclusive = between about -30% and that limit; inactive = weaker than that.

Assay: Small Molecules that selectively kill Giardia lamblia: qHTS;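 note: parasites exposed to compound for two days anaerobically before the ATP read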
Settings: Giardia lamblia trophozoite viability; at 7.66 µM; active compounds read low
Procedure, shortened: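 Compounds were tested on trophozoites seeded at 100 cells/well and held 48 hrs at 37 deg C anaerobically. An ATP-based luminescent kit measured the remaining live cells.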
% is set by controls: 0 for no effect and ±100 for the full control effect.

| Structure (SMILES) | activity change |
| --- | --- |
| CC1CCC(NC(=O)CCS(=O)(=O)c2ccc3c(c2)NC(=O)CS3)CC1 (configuration not stated) | inconclusive: -34.8% [inhibitor] |
| C#CCN1C(C)=C(C(=O)OC)C(c2cccc([N+](=O)[O-])c2)C(C(=O)OCC)=C1C (configuration not stated) | inactive: -0.0519% |
| CC(=O)N(C)c1ccc(N=Nc2ccc3ncccc3c2)cc1 | inactive: -15.7% |
| COc1ccc(Cl)cc1Nc1nc(C)cc(=O)[nH]1 | inconclusive: -30.5% [inhibitor] |
| Cc1c(N=Nc2ccc(N(C)C)cc2)c(=O)n(-c2ccccc2)n1C | inconclusive: -77.7% [inhibitor] |
| O=C1/C(=C\c2ccccc2)CN(C(=O)CCN2CCCCC2)C/C1=C/c1ccccc1 | inactive: 9.13% |
| Cc1ccc(Cl)cc1N1CCN(CC(=O)NC2CCCc3ccccc32)CC1 (configuration not stated) | inactive: 10.3% |
| N#Cc1ccc(S(=O)(=O)N2CCN(c3nc(-c4ccccc4)nc4ccccc34)CC2)cc1 | inactive: -17.1% |
| COc1ccc(Cl)cc1C(=O)Nc1nc(C)cc(C)n1 | inactive: -13.5% |
| C[C@H]1CN=C(N(C)C)N1CCC1CCCC1 | inconclusive: -48.9% [inhibitor] |
| C=CCN1C(c2cccc(C(F)(F)F)c2)=CS/C1=C(/C#N)c1nnc(N2CCOCC2)n1-c1ccccc1 | inactive: 18.5% |
| CCOc1cccc2cc(-c3cn4cc(C)ccc4n3)c(=O)oc12 | inconclusive: -58.1% [inhibitor] |
| CC1(C)CC(=O)c2cc(OCC(=O)O)ccc2O1 | inactive: -12.4% |
| CCc1c(C)sc(NC(=O)CSc2nc3c(c(C(F)(F)F)n2)CCc2ccccc2-3)c1C#N | inconclusive: -30.4% [inhibitor] |
| COc1ccc(NC(=O)c2ccco2)cc1S(=O)(=O)N1CCOCC1 | inactive: 2.01% |
| Cc1ccc(S(=O)(=O)N(C)CCCC(=O)Nc2ccc(F)cc2)cc1 | inconclusive: -40.8% [inhibitor] |
| CCC(=O)NCCc1nc2cc(NC(=O)Nc3ccccc3)ccc2n1C | inconclusive: -38.9% [inhibitor] |
| COc1ccc(C2c3[nH]c4ccccc4c3CCN2CCCn2cccn2)c(C)c1C (configuration not stated) | inconclusive: -30.9% [inhibitor] |
| O=C1/C(=C/c2ccncc2)CCC/C1=C\c1ccncc1 | inconclusive: -50% [inhibitor] |
| C=CCn1c(NCCc2ccccc2)nc2c1c(=O)n(C)c(=O)n2C | inconclusive: -34.4% [inhibitor] |
| COc1ccc(N2CCN(C(=O)c3ccc(CNS(=O)(=O)c4ccc(C)cc4)cc3)CC2)cc1 | inconclusive: -35.2% [inhibitor] |
| Cc1cccc(NC(=O)c2cc3ccccc3c(=O)o2)n1 | inconclusive: -30.7% [inhibitor] |
